One experiment has as its system HSkMC. In words: cytotoxicity call (relative viability < 0.9). Particulars: 10 µM.
In the next experiment the test system is S. aureus RN4220. The experiment in a line: growth inhibition call (relative growth <= 0.2). The note with it: 50 µM.

Some of the results follow.

As for `CO[C@H]1O[C@H](CO)[C@@H](OC(=O)Nc2ccc3c(c2)OCO3)[C@@H]2OC(=O)[C@H](Cc3cccc(Br)c3)C/C=C/C[C@@H](Cc3cccc(Br)c3)C(=O)O[C@@H]12`, the cytotoxicity call with HSkMC is “inactive”. Besides, the growth inhibition call in the experiment on S. aureus RN4220 is “inactive”.
For the compound `CC(=O)N1CCCC(=O)CC1`, the cytotoxicity call in the experiment with HSkMC is “inactive”. Besides, the growth inhibition call in the experiment with S. aureus RN4220 was “inactive”.
For `O=C(Nc1ccccc1)c1ccccc1`, in the experiment with HSkMC, the cytotoxicity call was “inactive”. Further, the growth inhibition call with S. aureus RN4220 is “inactive”.
Regarding `Cc1ccc(S(=O)(=O)N(C)C[C@@H]2Oc3ccc(N(C)C)cc3CC(=O)N([C@@H](C)CO)C[C@H]2C)cc1`, the cytotoxicity call with HSkMC is “inactive”. Moreover, in the experiment with S. aureus RN4220, the growth inhibition call is “inactive”.
As to `NC(=O)Cn1c(=O)c2ccccc2n(CC(N)=O)c1=O`, the cytotoxicity call in the experiment with HSkMC is “inactive”. Further, the growth inhibition call in the experiment on S. aureus RN4220 is “inactive”.
As to `C[C@H]1CN([C@@H](C)CO)C(=O)c2c(c3ccccc3n2C)-c2ccccc2CO[C@@H]1CN(C)Cc1cccc(C(=O)O)c1`, in the experiment on HSkMC, the cytotoxicity call is “inactive”. In the experiment with S. aureus RN4220, the growth inhibition call is “inactive”.
Turning to `COc1ccc(NC(=O)Nc2ccc3c(c2)CC(=O)N([C@H](C)CO)C[C@@H](C)[C@@H](CN(C)Cc2ccc(Cl)c(Cl)c2)O3)cc1`, the cytotoxicity call with HSkMC is “active”. In addition, in the experiment on S. aureus RN4220, the growth inhibition call was “inactive”.
On the same counts, the results for `C=CCC[C@@H](Cc1ccc(F)cc1)C(=O)OC[C@@H](NC(=O)[C@@H](CC=C)CC(=O)N[C@@H](CO)Cc1ccccc1)C(C)(C)C` are “inactive” and “inactive”.
As for `C[C@@H]1CN([C@@H](C)CO)C(=O)c2cc(NS(=O)(=O)c3ccc(Cl)cc3)ccc2O[C@@H](C)CCCCO[C@H]1CN(C)C(=O)C1CCCCC1`, in the experiment on HSkMC, the cytotoxicity call was “inactive”. Besides, the growth inhibition call in the experiment with S. aureus RN4220 was “inactive”.
With `C[C@@H]1CCCCO[C@H](CN(C)C(=O)Nc2ccccc2)[C@H](C)CN([C@@H](C)CO)C(=O)c2cc(NS(=O)(=O)c3cccs3)ccc2O1`, in the experiment with HSkMC, the cytotoxicity call is “inactive”. The growth inhibition call with S. aureus RN4220 was “inactive”.
As to `C[C@H]1CN([C@@H](C)CO)C(=O)c2cccc(NC(=O)Nc3ccc(C(F)(F)F)cc3)c2O[C@@H]1CN(C)Cc1ccc(C(=O)Nc2ccccc2N)cc1`, the cytotoxicity call with HSkMC was “inactive”. For the same compound, the growth inhibition call with S. aureus RN4220 was “inactive”.
In the case of `CC(=O)OCC(=O)NCCCOc1cccc(CN2CCCCC2)c1.Cl`, the cytotoxicity call in the experiment on HSkMC was “inactive”. Also, the growth inhibition call in the experiment with S. aureus RN4220 is “inactive”.
Take `COc1ccc(S(=O)(=O)Nc2ccc3c(c2)C(=O)N([C@H](C)CO)C[C@H](C)[C@H](CN(C)CC2CCCCC2)OCCCC[C@H](C)O3)cc1`: the cytotoxicity call in the experiment on HSkMC was “inactive”. Also, the growth inhibition call in the experiment with S. aureus RN4220 was “inactive”.
Regarding `C[C@@H]1CN([C@@H](C)CO)C(=O)c2cc(NC(=O)Nc3ccc(C(F)(F)F)cc3)ccc2O[C@@H]1CN(C)Cc1ccncc1`, the cytotoxicity call in the experiment with HSkMC is “inactive”. Moreover, in the experiment on S. aureus RN4220, the growth inhibition call was “inactive”.
`Cc1ccc(S(=O)(=O)N(C)C[C@@H]2Oc3ccc(NS(=O)(=O)c4ccc(F)cc4)cc3C(=O)N([C@@H](C)CO)C[C@H]2C)cc1`: the cytotoxicity call with HSkMC was “inactive”. In addition, in the experiment with S. aureus RN4220, the growth inhibition call is “inactive”.
`CC(C)CN1C[C@H](C(=O)O)CC1=O`: the cytotoxicity call with HSkMC is “inactive”. For the same compound, in the experiment on S. aureus RN4220, the growth inhibition call is “inactive”.
For `COc1ncc(NC(=O)C2CC2)c(OC)n1`, the cytotoxicity call in the experiment on HSkMC was “inactive”. Moreover, the growth inhibition call with S. aureus RN4220 was “inactive”.
`C[C@H]1CCCCO[C@H](CN(C)C(=O)Nc2ccc(F)cc2)[C@@H](C)CN([C@@H](C)CO)C(=O)c2cc(NS(=O)(=O)c3cccs3)ccc2O1`: the cytotoxicity call in the experiment with HSkMC is “inactive”. Further, the growth inhibition call in the experiment on S. aureus RN4220 is “inactive”.
For `C[C@@H]1CN([C@H](C)CO)C(=O)Cc2cc(NC(=O)Nc3ccc(C(F)(F)F)cc3)ccc2O[C@H]1CN(C)C(=O)Nc1ccc(F)cc1`, the cytotoxicity call with HSkMC is “inactive”. The growth inhibition call in the experiment on S. aureus RN4220 is “inactive”.
For the compound `COc1ccc(S(=O)(=O)Nc2ccc3c(c2)CC(=O)N([C@@H](C)CO)C[C@@H](C)[C@H](CN(C)Cc2ccc(C(=O)O)cc2)O3)cc1`, in the experiment on HSkMC, the cytotoxicity call was “inactive”. Further, in the experiment on S. aureus RN4220, the growth inhibition call was “inactive”.
In the case of `CNC[C@H]1Oc2ccc(NC(=O)Cn3cnnn3)cc2CC(=O)N([C@@H](C)CO)C[C@@H]1C`, the cytotoxicity call in the experiment with HSkMC is “inactive”. Moreover, the growth inhibition call in the experiment on S. aureus RN4220 is “inactive”.
Consider `C[C@@H]1CN([C@H](C)CO)C(=O)c2cc(NC(=O)NC3CCCCC3)ccc2O[C@@H](C)CCCCO[C@@H]1CN(C)Cc1ccccc1`, for which the cytotoxicity call in the experiment with HSkMC was “inactive”. Also, in the experiment on S. aureus RN4220, the growth inhibition call is “inactive”.
Turning to `C[C@@H]1CN([C@H](C)CO)C(=O)c2cccc(NC(=O)C3CC3)c2O[C@H]1CN(C)Cc1ccc(Oc2ccccc2)cc1`, the cytotoxicity call in the experiment with HSkMC was “inactive”. In addition, in the experiment with S. aureus RN4220, the growth inhibition call was “inactive”.
In the case of `COC(=O)[C@H]1C2C(=O)N(C3CC3)C[C@]23C=C[C@H]1O3` (stereo not given in full), the cytotoxicity call in the experiment with HSkMC is “inactive”. Further, the growth inhibition call with S. aureus RN4220 is “inactive”.
`CN1CCN(C(=O)C[C@H]2CC[C@@H]3[C@H](COc4ccc(NC(=O)c5ccc(F)c(F)c5)cc4C(=O)N3C)O2)CC1`: in the experiment on HSkMC (human skeletal muscle cells), the cytotoxicity call is “inactive”. In addition, the growth inhibition call in the experiment with S. aureus RN4220 is “inactive”.
Consider `COC(=O)[C@@H](C)S(=O)(=O)NC(=O)c1cnc2ccccn2c1=O`, for which the cytotoxicity call in the experiment with HSkMC was “inactive”. In addition, in the experiment on S. aureus RN4220, the growth inhibition call is “inactive”.
On to `Cc1ccc(S(=O)(=O)Nc2ccc3c(c2)CC(=O)N([C@@H](C)CO)C[C@H](C)[C@@H](CN(C)Cc2ccc(-c4ccccc4)cc2)O3)cc1`, for which the cytotoxicity call in the experiment with HSkMC is “active”. The growth inhibition call in the experiment on S. aureus RN4220 was “inactive”.
The matching figures for `Cc1ccc(S(=O)(=O)NCC[C@@H]2CC[C@H](NS(=O)(=O)c3ccccc3Cl)[C@@H](CO)O2)cc1`: “inactive” and “inactive”.
On the same counts, the results for `CO[C@H]1CN(C)C(=O)c2ccc(NS(=O)(=O)c3ccccc3)cc2OC[C@H](C)N(C(=O)NC(C)C)C[C@@H]1C` are “inactive” and “inactive”.
On the same counts, the results for `COc1ccc(NC(=O)Nc2ccc3c(c2)C(=O)N([C@H](C)CO)C[C@H](C)[C@@H](CN(C)S(=O)(=O)c2ccccc2)OCCCC[C@@H](C)O3)cc1` are “inactive” and “inactive”.

(Values after the antibiotic and cytotoxicity screens of Wong et al. (2023).)
